# Experimental data published in publication PMC12040169 (PLOS Biology, 2025).
# The other results are listed elsewhere or left out.
# Tested on: T1, C. trachomatis L2/434/Bu expressing GFP (CTL2-GFP)
# T1 construct: L2/434/Bu GFP intracellular growth in HeLa cells
# Design: species or system HeLa; C. trachomatis total inclusion area by high-content imaging, normalised to DMSO
# Details: total inclusion area; 28.5 h, 10 µM; inhibitor
# In short: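 After bulk GFP and resorufin fluorescence reads, cells were fixed, stained with Hoechst and imaged by high-content microscopy. Inclusion area and number (GFP) stood in for chlamydial growth, nuclei count (Hoechst) for host cell viability. MICs were derived as for the bulk readout.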
row,SMILES,% of control remaining
1,COc1ccccc1-c1nccnc1OC [CBK106811],68.1272
2,CC1(C)[C@H](Cc2cc(CO)on2)C[C@@H]1NS(=O)(=O)c1ccccc1 [CBK289234],76.3306
3,Cc1ccccc1OCC(=O)NCC1(N2CCCCC2)CCCCC1 [CBK297752],87.6278
4,COC(=O)C1CCCCN1S(=O)(=O)c1cccc2cccnc12 (centres unmarked) [CBK051244],93.339
5,COc1ccccc1NC(=O)Cn1cc(C(=O)c2cccs2)c2ccccc21 [CBK268256],87.9691
6,O=C(NCCCNC(=O)c1ccc(Br)o1)c1ccccn1 [CBK269430],109.264
7,COc1ccc(-c2noc(CN(C(C)=O)C3CCCCC3)n2)cc1 [CBK270264],93.3265
8,Cc1ccc(NC(=S)N(CCN(C)C)Cc2cc3ccc(C)cc3[nH]c2=O)c(C)c1 [CBK135134],94.6028
9,O=C(c1cc2cc(Cl)ccc2[nH]1)N1CCN(c2ccccn2)CC1 [CBK107343],88.6882
10,CN1CC[C@H](c2nc3ncccc3[nH]2)C1 [CBK289384],58.8611
11,Cc1ccc(S(=O)(=O)Nc2ccc(Nc3cc(-c4cc5ccccc5o4)ncn3)cc2)cc1 [CBK090976],112.964
12,NS(=O)(=O)c1ccc(NC(=O)c2ccc3ccccc3c2)cc1 [CBK264338],93.6065
13,Cc1cc(C)c2c(c1)cc(C)c1nn(CC(=O)N(C)C)c(=O)n12 [CBK283927],91.6848
14,CC(=O)CCCCC(=O)N1CCC2(CC1)CC(=O)c1cc(C)c(C)cc1O2 [CBK156497],123.294
15,O=C(C1CCCC1)N1CCC(n2c(=O)oc3ccc(Cl)cc32)CC1 [CBK284344],91.3458
16,O=S(=O)(Nc1nnn[nH]1)c1csc2ccccc12 [CBK062590],122.699
17,O/N=C1\CC(c2ccccc2)Oc2ccc(Cl)cc21 (centres unmarked) [CBK288370],38.3729
18,CC(C)Nc1nccnc1OCc1ccc(F)cc1 [CBK115644],105.462
19,Cc1cnc2c(Cl)c(C(=O)N3CCN(C)C4(CCNCC4)C3)nn2c1 [CBK306513],41.3099
20,CCOC(=O)C1CSCCN1C(=O)c1cc(C)n(-c2nccs2)c1C (centres unmarked) [CBK305884],42.0393
21,O=C1CC(N2CCN(c3ccccc3)CC2)C(=O)N1c1cccc2ccccc12 (centres unmarked) [CBK261263],108.746
22,O=C(NC1CCCCC1)[C@@H]1C=CCN1C(=O)c1cccs1 [CBK284338],76.2692
23,Cc1ccc(OCCOc2cccc(/C=N/n3cnnc3)c2)cc1 [CBK263028],97.587
24,COC(=O)c1cn(C(=O)COc2ccc(Cl)cc2)c2ccccc12 [CBK262598],104.347
25,CN(C)S(=O)(=O)N(CC(=O)Nc1cccc([N+](=O)[O-])c1)c1ccccc1 [CBK265904],87.4987
26,CS(=O)(=O)c1ccc(CNc2nccnc2-c2ccccc2F)cc1 [CBK036836],102.48
27,CC(=O)Nc1cccc(-n2nnnc2SCCCc2nc3ccccc3o2)c1 [CBK298317],92.7443

row,SMILES,% of control remaining
1,O=C1CN(C(=O)NCc2cccc3ccccc23)CCN1 [CBK155852],132.319
2,C=CCn1c2ccccc2c2nnc(SCC(=O)OCN3C(=O)c4ccccc4C3=O)nc21 [CBK263231],85.6692
3,COc1ccc(C(=O)C2=C(O)C(=O)N(CCCN(C)C)C2c2ccc(Cl)c(Cl)c2)c(C)c1 (centres unmarked) [CBK264896],117.672
4,COc1cccc(-c2csc(N3CCN(C(=O)Nc4ccccc4)CC3)n2)c1 [CBK070275],88.6774
5,O=C1NCCNC(=O)C2(C/C=C/COc3ccccc31)CCN(C(=O)CCN1CCCCC1)CC2 [CBK292026],84.5047
6,CC(C)(CN1CCCC1)CN1CCC(O)(c2ccccc2F)CC1 [CBK282798],109.437
7,S=c1[nH]nc(COc2ccccc2)n1C1CCCCC1 [CBK014411],81.2507
8,CCC1CCCCN1C(=O)c1ccnc(C)c1 (centres unmarked) [CBK081093],98.6331
9,COc1cccc(OCC(=O)NCC(c2cccs2)N2CCOCC2)c1 (centres unmarked) [CBK304664],111.103
10,CC(C)(CNC(=O)c1ccc(=O)n(CC(=O)N2CCc3ccccc32)c1)c1ccccc1F [CBK286020],137.221
11,Cc1c(C(=O)N2CCC(c3nc(C)n4ccsc34)CC2)cnn1C [CBK285201],74.0735
12,CN1CCN(c2ccc(-c3cc(Nc4cccc(OCc5ccccc5)c4)ncn3)cn2)CC1 [CBK090918],110.678
13,O=C(c1c[nH]c2ccccc12)N1CCC(Cc2ccccc2)CC1 [CBK200180],105.949
14,CC1(C(=O)Nc2cnn(Cc3ccc(F)cc3)c2)CCCO1 (centres unmarked) [CBK282585],91.87
15,CSc1nc2ccc(NC(=O)CSc3nnnn3-c3ccccc3)cc2s1 [CBK263549],108.596
16,COc1cc(C(N)C(=O)O)ccc1OCc1ccccc1 (centres unmarked) [CBK286909],72.6832
17,COc1cccc(CNC2CC2)c1OCc1ccccc1 [CBK270009C],91.8869
18,O=c1c(N2CCNCC2)nccn1CC1COc2ccccc2O1 (centres unmarked) [CBK024845T],41.7561
19,CC1(C)C/C(=N/O)c2cc3c(nc2C1)CC(C)(C)C/C3=N\O [CBK261629],87.9015
20,Cc1cc(-c2cc(=O)n(Cc3ccccc3C)nc2-c2ccco2)on1 [CBK282878],92.4526
21,COC(=O)c1c(NC(=S)NNC(=O)c2nn(C)cc2I)sc2c1CCC2 [CBK267074],117
22,O=C(NC[C@H]1O[C@@H](CC(=O)N2CCN(c3ccccc3)CC2)[C@H](O)[C@@H]1O)c1ccco1 [CBK288919],69.8413
23,COC(=O)c1ccc(N2CCN(Cc3nc(C4CC4)no3)C(C)C2)cc1 (centres unmarked) [CBK305744],80.0438
24,COc1ccccc1-c1cc2nc(C)cc(NCC3CCCO3)n2n1 (centres unmarked) [CBK304277],78.9637
25,OCCN1CC2(CCN(CC3CCCO3)CC2)c2ccccc21 (centres unmarked) [CBK143959],111.112
26,O=C(NCCCN1CCOCC1)NC(=O)c1ccc(Cl)cc1 [CBK269531],81.2787
27,O=C(CSc1nnc(-c2ccccc2)c(-c2ccccc2)n1)Nc1ccc(N2CCOCC2)cc1 [CBK269684],98.206

row,SMILES,% of control remaining
1,O=C(Cn1c(NCCO)nc2ccccc21)c1ccc([N+](=O)[O-])cc1 [CBK262139B],84.5474
2,Cc1ccc(C(=O)NNC(=O)c2cccnc2)cc1 [CBK261045],97.8592
3,COc1ccc(-n2nnc(C(=O)N3CCCCC3C(N)=O)c2C)cc1 (centres unmarked) [CBK305551],65.8651
4,O=C(Cc1ccccc1)N1CCc2c([nH]c3ccccc23)C12CCNC2 (centres unmarked) [CBK059461],89.025
5,CC[C@@H](Cn1nc2c(cc1=O)CCCCC2)NC(=O)c1ccco1 [CBK284553],112.597
6,COc1ccc(C)cc1S(=O)(=O)Nc1cc(N2CCN(CC3CC3)CC2)c2occc2c1 [CBK073624C],78.1743
7,COc1cccc(CN2CCC(Cc3ccccc3)CC2)c1 [CBK126436],102.517
8,CC(C)OC(=O)c1cc2n(n1)C(C(F)(F)F)CC(c1cccs1)N2 (centres unmarked) [CBK307176],66.0872
9,CCOC(=O)c1sc2nc(C(C)N(C)Cc3ccco3)[nH]c(=O)c2c1C (centres unmarked) [CBK306148],75.7385
10,Cn1c(=O)[nH]c(=O)c2c1nc(CN1CCOCC1)n2CCc1ccccc1 [CBK269910],88.0822
11,Nc1ccc(C(=O)Nc2ccc(Nc3cc(-c4ccccc4OCc4ccccc4)ncn3)cc2)cc1 [CBK091092],111.729
12,O=C(CSc1nnc(-c2cccnc2)n1-c1ccc(Br)cc1)Nc1cc(C(F)(F)F)ccc1Cl [CBK266099],50.7693
13,O=C(NC1CCN(C(=O)CCn2ccc3ccncc32)CC1)C1CC1 [CBK284718],102.651
14,O=C(CO)N1CC2(CCN(CCC(c3ccccc3)c3ccccc3)CC2)c2ccccc21 [CBK131513],72.5988
15,Cc1ccc(C(=O)NCCCN2CCC3(CC2)OCCc2c3[nH]c3ccccc23)cc1 [CBK113485],6.936
16,Cn1ccnc1C1(O)CCN(C(=O)Cc2ccccc2F)CC1 [CBK283585],79.0397
17,CCOC(=O)C1(Cc2cc(-c3ccccc3F)no2)CCCNC1 (centres unmarked) [CBK284577],79.8708
18,Cc1oc(C2CC2)cc1C(=O)N1CCCC1c1nc2ccccc2[nH]1 (centres unmarked) [CBK283741],66.1785
19,CC(C)(C)c1ccc(-c2ccc3ccc(=O)[nH]c3n2)cc1 [CBK073716],97.958
20,Cc1cnc(CNS(=O)(=O)c2c(C)noc2C)cn1 [CBK062328],102.122
21,CCn1c(CN2CC(C)CC(C)C2)nc2c1c(=O)n(C)c(=O)n2C (centres unmarked) [CBK306030],75.3999
22,O=C(O)c1ccc(/C=N\NC(=O)C2COc3cc4ccccc4cc3O2)cc1 (centres unmarked) [CBK262792],81.5474
23,O=c1nc(-c2cc(Br)cs2)[nH]c2ccc(Cl)cc12 [CBK018959],105.713
24,NC(CC(=O)O)c1ccc(OCCc2ccccc2)cc1 (centres unmarked) [CBK287053],94.6185
25,Cc1ccc(S(=O)(=O)Nc2ccccc2C(N)=O)cc1 [CBK056893],91.9428
26,CCOc1cc(/C=C2\SC(=S)N(NC(=O)c3cccnc3)C2=O)ccc1O [CBK262759],82.4163
